Data published in the supplement of paper PMC11417369.
± gives the standard deviation of the averaged measurements. The list shows a part of the results.

The sequences below were run on PfAP2-LT AP2 domain (GST-tagged) (assay: gcPBM binding intensity (ln(normalized median fluorescence intensity)); higher = stronger DNA binding).
Summary of the method: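 Each value is the highest Masliner-normalised natural-log median intensity across replicate spots of either orientation of a probe. The probes were primer-extended double-stranded 36-bp intergenic genomic sequences on an Agilent 4 × 180k array, alongside negative controls, exposed for 1 h to GST-tagged P. falciparum DNA-binding domains expressed in E. coli. Bound protein was picked up with Alexa488 anti-GST antibody and scanned at 488 nm.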

Sequence	gcPBM binding intensity (ln)
TATATATATATATATTGTACTGAACGTTTTTTTTTG [XGTACX_site8060]	9.43 ± 0.2
AACAAAACCTTATATGTACACACATATACATCACAC [CACACA_site9037]	9.34 ± 0.33
TATATAATATATATATGTACATATATATATGTTTTT [XGTACX_site3347]	8.76 ± 0.42
TATACATAAAACAGTTCACACATTGTATGAATATAT [CACACA_site4751]	9.05 ± 0.43
TACAAACACCCATATACACACAAAAAAAAAATAAAA [CACACA_site5421]	9.24 ± 0.49
AGAAAAACTTATATGATACACACGATAAACAAAATA [CACACA_site1038]	8.96 ± 0.46
TATATCTGTTTATATTGTACACATATATATATATAT [XGTACX_site714]	9.2 ± 0.33
GGCAATACATAATAATGTACATAATTATATAATATT [XGTACX_site3739]	8.92 ± 0.38
TTGTTTCTTTTTTTTTGTACATATATATTGTATATT [XGTACX_site7602]	9.09 ± 0.36
AATTTTTCAAATTAATGTACTTGTTATAAATTGTAA [XGTACX_site5428]	8.34 ± 0.42
GGACAACAAACAAACACACACAAAAAAAAAATAAAA [CACACA_site3791]	9.6 ± 0.71
TACGTATTTTAATATTTACACACTTATTTTTTATAT [CACACA_site7924]	8.97 ± 0.46
TAGAACAAATAAAACACACACATATAAATATAGATG [CACACA_site7325]	9.42 ± 0.42
GATATTATGTGTTTGGTATTTTTTGATGTTGGTAGG [XGTACX_negctrl_site563]	9.13 ± 0.44
TCTTTCTAAAGATGTAGTACAAAATAAATATAATAT [XGTACX_site6564]	8.58 ± 0.42
AAGGCAAACAAACACACACACATATATACATATATA [CACACA_site2122]	9.87 ± 0.36
TTTATACAAACAACTTTATATTAATGTTTAACGGAG [GTGCAC_negctrl_site396]	8.35 ± 0.38
TTATCACACCTTTTTTGTACGAAATAAAAAAAAAAA [XGTACX_site5564]	8.18 ± 0.27
TAATATGCTCATGTAACACACATTTGCATATTTTTC [CACACA_site1357]	9.09 ± 0.35
GTGCAAAATATTTTTACACACAAATTCTTACAACAG [CACACA_site7556]	9.03 ± 0.43
ATATCTATGTTTATCTCGAATAACTTAAAAAATTAT [CACACA_negctrl_site1131]	8.45 ± 0.45
CATACAGACATACATACACACATACATACAGACATA [CACACA_site6996]	9.56 ± 0.35

Sequence	gcPBM binding intensity (ln)
TGTAAATATATATATACACACACACCGAAGCAATAG [CACACA_site8960]	9.73 ± 0.31
TTTTTTTTTTTTTAAACATGCATATTAATATTATAT [TGCATGCA_site820]	8.52 ± 0.42
TAAAAAGGAAGACACACACACACATATATAAATATA [CACACA_site7657]	10.2 ± 0.34
GTATATCACACATTTGCATGTTGTCAATAGTTTATC [TGCATGCA_site134]	9.16 ± 0.36
TATATACACATATATAAACACACAAAAAAAAAAAAA [CACACA_site8626]	8.89 ± 0.4
ATACAAATTGTTTAAAGTACAAATTACACCTCTTAA [XGTACX_site6888]	8.62 ± 0.44
GTATTACAACGACACACACACCTATATATCATAGTA [CACACA_site7877]	9.66 ± 0.34
ACATTAAAAAAAAAATGTACATAAATATTTTTCCTT [XGTACX_site4361]	8.48 ± 0.46
AATTTTATTCATTGAGCACACAAAATAAATTATCAA [CACACA_site9079]	8.62 ± 0.39
ATCTTTTATATAAAATGTACAGAGTTTGAAAGAATA [XGTACX_site8826]	8.39 ± 0.42
TATCATTAATTTACATGTACATAAATGAATGTTTAT [XGTACX_site5608]	8.72 ± 0.44
TTCGTAATTTATATCACACACATATATCTATAATAA [CACACA_site7458]	9 ± 0.3
TTAAAAATATTATGTACACACATTTGAGATATTTGT [CACACA_site6953]	8.97 ± 0.35
TTTTTTGTTATTAAAAGTACATTATATGCTAGTTAA [XGTACX_site8747]	8.3 ± 0.34
TGAAATAAAATTTATACACACTTGCTAAATGATCAT [CACACA_site4265]	8.74 ± 0.42
ATTATATACATATATGCACACAAAAAAATATATATT [CACACA_site8508]	9.09 ± 0.31
AAAGGCTATCTTATATACTCCTAAAACGCGAACGTA [CACACA_negctrl_site396]	8.53 ± 0.43
ATAAATTCTATGTATACACACATATAAAATATAGAT [CACACA_site7296]	8.96 ± 0.46
AATATATAAATATTGTGTACTTATTTTTTTATATGT [XGTACX_site4377]	8.77 ± 0.47
AACAATTTATATAAAGCACACATGGGAAGGAAATAC [CACACA_site1712]	9.25 ± 0.41
TACAATTTAATATATACACACAAATAAATTATGCTT [CACACA_site856]	8.71 ± 0.4
ATATGTATGAAGTGTACACATATATTGTATTTTCTT [CACACA_site5503]	9.05 ± 0.42
